Source: article PMC11629888
Results are given in words; binding and its absence hold for the method and conditions named. For part of these data: Binding seen in cells or lysates may run through a third protein. Some entries that bind do so weakly or less than the wild type. For part of these data: Tags and fused reporters may be left off the sequences shown. One block for each molecule: values may come before it.

By UniProt entry, the sequences of proteins in these tests, tags left out. Residues count along the entry.
UniProt P14625, residues 22-803: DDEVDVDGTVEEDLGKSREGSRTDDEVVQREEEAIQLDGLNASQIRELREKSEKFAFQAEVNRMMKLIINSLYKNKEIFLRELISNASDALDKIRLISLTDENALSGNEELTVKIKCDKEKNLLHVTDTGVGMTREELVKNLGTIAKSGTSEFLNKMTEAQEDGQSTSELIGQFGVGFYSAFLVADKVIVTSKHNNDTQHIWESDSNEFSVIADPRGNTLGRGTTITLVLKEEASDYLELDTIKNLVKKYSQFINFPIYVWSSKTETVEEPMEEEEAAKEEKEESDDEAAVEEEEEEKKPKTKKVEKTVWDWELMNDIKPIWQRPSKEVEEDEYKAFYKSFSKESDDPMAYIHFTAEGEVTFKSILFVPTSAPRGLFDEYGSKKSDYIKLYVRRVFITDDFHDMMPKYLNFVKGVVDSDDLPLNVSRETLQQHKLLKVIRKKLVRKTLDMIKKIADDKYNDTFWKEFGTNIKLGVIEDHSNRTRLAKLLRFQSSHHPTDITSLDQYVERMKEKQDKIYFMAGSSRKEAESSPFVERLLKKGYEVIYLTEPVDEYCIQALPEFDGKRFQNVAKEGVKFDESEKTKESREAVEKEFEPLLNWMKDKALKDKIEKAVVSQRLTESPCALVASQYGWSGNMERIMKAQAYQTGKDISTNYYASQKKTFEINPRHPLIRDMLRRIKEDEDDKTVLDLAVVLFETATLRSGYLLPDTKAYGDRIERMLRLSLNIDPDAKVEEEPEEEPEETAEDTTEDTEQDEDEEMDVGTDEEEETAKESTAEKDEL
UniProt P19438, residues 30-455: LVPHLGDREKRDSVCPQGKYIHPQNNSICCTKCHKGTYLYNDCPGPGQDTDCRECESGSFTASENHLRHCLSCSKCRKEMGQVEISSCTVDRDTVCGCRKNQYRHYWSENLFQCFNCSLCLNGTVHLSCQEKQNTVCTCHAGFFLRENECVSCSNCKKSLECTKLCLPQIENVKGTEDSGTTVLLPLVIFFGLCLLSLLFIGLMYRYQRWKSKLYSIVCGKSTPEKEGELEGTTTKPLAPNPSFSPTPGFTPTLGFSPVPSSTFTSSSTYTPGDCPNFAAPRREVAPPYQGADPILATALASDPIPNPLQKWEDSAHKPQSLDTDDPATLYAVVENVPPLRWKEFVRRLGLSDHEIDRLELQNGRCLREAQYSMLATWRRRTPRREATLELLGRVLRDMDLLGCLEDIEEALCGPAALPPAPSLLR

Tests used:
[1] = molecular target: T1, TLR7-V5, stably expressed in CAL-1 cells (UniProt Q9NYK1); assay: co-IP; V5 immunoprecipitation from TLR7-V5-expressing CAL-1 lines (control, CCDC134 knockout, CNPY3 knockout), E1A buffer; endogenous Gp96 and CNPY3 detected by immunoblot
T1 sequence: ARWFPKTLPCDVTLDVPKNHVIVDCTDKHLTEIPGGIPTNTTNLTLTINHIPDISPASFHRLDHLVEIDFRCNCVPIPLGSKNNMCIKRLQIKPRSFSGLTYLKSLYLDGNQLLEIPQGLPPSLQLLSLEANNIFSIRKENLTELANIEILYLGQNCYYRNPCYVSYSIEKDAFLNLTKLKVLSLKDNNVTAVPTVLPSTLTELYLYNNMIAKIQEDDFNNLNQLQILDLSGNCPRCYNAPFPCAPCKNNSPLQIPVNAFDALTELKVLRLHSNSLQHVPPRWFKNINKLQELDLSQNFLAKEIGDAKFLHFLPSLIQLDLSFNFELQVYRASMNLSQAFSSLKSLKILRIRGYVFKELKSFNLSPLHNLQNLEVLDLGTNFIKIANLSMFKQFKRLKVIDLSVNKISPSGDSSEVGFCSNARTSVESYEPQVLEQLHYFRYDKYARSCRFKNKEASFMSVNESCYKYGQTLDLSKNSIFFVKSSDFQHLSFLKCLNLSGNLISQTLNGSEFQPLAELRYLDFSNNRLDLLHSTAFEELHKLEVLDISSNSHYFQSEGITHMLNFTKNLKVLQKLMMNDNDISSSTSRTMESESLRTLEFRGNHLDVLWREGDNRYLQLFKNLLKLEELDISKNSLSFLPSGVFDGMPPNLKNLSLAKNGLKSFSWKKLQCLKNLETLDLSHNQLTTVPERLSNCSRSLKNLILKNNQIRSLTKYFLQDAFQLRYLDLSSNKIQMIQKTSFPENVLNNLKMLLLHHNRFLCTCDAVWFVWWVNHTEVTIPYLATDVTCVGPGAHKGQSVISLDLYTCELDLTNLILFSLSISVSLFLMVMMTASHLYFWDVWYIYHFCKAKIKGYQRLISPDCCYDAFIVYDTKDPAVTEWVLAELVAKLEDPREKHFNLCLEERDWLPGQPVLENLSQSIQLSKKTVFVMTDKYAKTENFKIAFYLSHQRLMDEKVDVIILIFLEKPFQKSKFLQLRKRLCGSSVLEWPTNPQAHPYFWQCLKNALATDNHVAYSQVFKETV

[2] = molecular target: T2, Flag-CCDC134 (internal Flag tag), stably reconstituted in CCDC134 knockout CAL-1 cells (human) (UniProt Q9H6E4); assay: co-IP; Flag immunoprecipitation from sgCCDC134 CAL-1 cells stably reconstituted with Flag-CCDC134 (2-4 x 10^7 cells), E1A buffer; endogenous partners detected by immunoblot
T2 sequence: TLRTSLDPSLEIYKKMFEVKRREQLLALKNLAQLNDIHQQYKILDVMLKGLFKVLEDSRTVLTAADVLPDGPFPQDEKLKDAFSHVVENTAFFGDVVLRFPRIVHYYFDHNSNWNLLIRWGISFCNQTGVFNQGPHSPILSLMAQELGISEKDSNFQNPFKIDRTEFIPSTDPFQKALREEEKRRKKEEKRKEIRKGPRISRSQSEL

[3] = molecular target: T3, CCDC134 (wildtype), co-expressed in HEK293T cells (human) (UniProt Q9H6E4); assay: co-IP; proteins co-expressed in HEK293T by transfection, harvested 24 h later; lysis and washes in E1A buffer (50 mM HEPES pH 7.4, 250 mM NaCl, 5 mM EDTA, 1% NP40); anti-V5 agarose, StrepTactin Sepharose or anti-Flag M2 gel, 3 h or overnight at 4°C; immunoblot
T3 sequence: T2 sequence

[4] = molecular target: recombinant Gp96-HA (human) (UniProt P14625); assay: co-IP; purified recombinant Flag-CCDC134 and Gp96-HA preincubated overnight at 4°C, resuspended in E1A buffer (50 mM HEPES pH 7.4, 250 mM NaCl, 5 mM EDTA, 1% NP40), anti-HA agarose beads 3 h at 4°C; immunoblot; both purified

Molecule: TNFR1-flag (from UniProt P19438 30-455) (receptor)
binding [3]: no binding

Molecule: Gp96 (wildtype), expressed in HEK293T cells (from UniProt P14625 22-803)
binding [3]: binds

B1: UNC93B1, expressed in HEK293T cells (protein, UniProt Q9H1C4 1-597)
chain: MEAEPPLYPMAGAAGPQGDEDLLGVPDGPEAPLDELVGAYPNYNEEEEERRYYRRKRLGVLKNVLAASAGGMLTYGVYLGLLQMQLILHYDETYREVKYGNMGLPDIDSKMLMGINVTPIAALLYTPVLIRFFGTKWMMFLAVGIYALFVSTNYWERYYTLVPSAVALGMAIVPLWASMGNYITRMAQKYHEYSHYKEQDGQGMKQRPPRGSHAPYLLVFQAIFYSFFHLSFACAQLPMIYFLNHYLYDLNHTLYNVQSCGTNSHGILSGFNKTVLRTLPRSGNLIVVESVLMAVAFLAMLLVLGLCGAAYRPTEEIDLRSVGWGNIFQLPFKHVRDYRLRHLVPFFIYSGFEVLFACTGIALGYGVCSVGLERLAYLLVAYSLGASAASLLGLLGLWLPRPVPLVAGAGVHLLLTFILFFWAPVPRVLQHSWILYVAAALWGVGSALNKTGLSTLLGILYEDKERQDFIFTIYHWWQAVAIFTVYLGSSLHMKAKLAVLLVTLVAAAVSYLRMEQKLRRGVAPRQPRIPRPQHKVRGYRYLEEDNSDESDAEGEHGDGAEEEAPPAGPRPGPEPAGLGRRPCPYEQAQGGDGPEEQ
binding [3]: no binding

B2: TLR7, expressed in HEK293T cells (receptor, UniProt Q9NYK1 27-1049)
chain: T1 sequence
binding [3]: binds

B5: CCDC134 (wildtype), co-expressed in HEK293T cells (protein, UniProt Q9H6E4 23-229)
chain: T2 sequence
binding [3]: binds

Continued, values first:

binding [1]: binds
binding [2]: binds
Molecule: endogenous Gp96 in CAL-1 cells (from UniProt P14625 22-803)

binding [1]: binds
B3: endogenous CNPY3 in CAL-1 cells (protein, UniProt Q9BT09 31-278)
chain: GPSQAGAEENDWVRLPSKCEVCKYVAVELKSAFEETGKTKEVIGTGYGILDQKASGVKYTKSDLRLIEVTETICKRLLDYSLHKERTGSNRFAKGMSETFETLHNLVHKGVKVVMDIPYELWNETSAEVADLKKQCDVLVEEFEEVIEDWYRNHQEEDLTEFLCANHVLKGKDTSCLAEQWSGKKGDTAALGGKKSKKKSSRAKAAGGRSSSSKQRKELGGLEGDPSPEEDEGIQKASPLTHSPPDEL

binding [4]: binds
B4: recombinant Flag-CCDC134 (protein, UniProt Q9H6E4 23-229)
chain: T2 sequence
